“And” between values parts separate entries of the source, which are not always exact repeats. Equal values may be shown once. Among all 16,000 compounds or so, about 40 (0.2%) were called active. Inconclusive results (about 1%) are left out. Calls follow the shape of the dose curve; as a rule, active = well fitted activation curve with a large enough effect; inconclusive = small, poorly fitted or top-dose-only effect, or another doubt; inactive = no such curve, though single readings can be large or run the other way. The list shows a part of the results. Residues, ends and D or L forms follow the SMILES beside them.

These results are taken from PubChem BioAssay AID1645887 (National Center for Advancing Translational Sciences (NCATS), 2021).
% is scaled to controls: 0 for no effect and ±100 for the full control effect.

The assay addresses Rap guanine nucleotide exchange factor 4 (Homo sapiens) (UniProt Q8WZA2). As to the kind of experiment: Validation qHTS for agonist of cAMP-regulated guanine nucleotide exchange factor 4 (EPAC2).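 Also: exchange makes BODIPY-GDP fluorescence drop when released from Rap1B; series mostly up to about 150 µM.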 The conditions noted are these: EPAC2 Rap1B BODIPY-GDP exchange, fluorescence; activation: active compounds read high. Summed up: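 Fluorescent exchange assay: 100 nM EPAC2 with 250 nM RAP1B-BODIPY-GDP and 50 uM GDP; compound added, 5 min at room temperature, then read (ex 480/em 540 nm) every 5 min for 30 min. Normalized to 6.5 mM cAMP agonist control.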
UniProt Q8WZA2, sequence (Q8WZA2 whole entry, looked up): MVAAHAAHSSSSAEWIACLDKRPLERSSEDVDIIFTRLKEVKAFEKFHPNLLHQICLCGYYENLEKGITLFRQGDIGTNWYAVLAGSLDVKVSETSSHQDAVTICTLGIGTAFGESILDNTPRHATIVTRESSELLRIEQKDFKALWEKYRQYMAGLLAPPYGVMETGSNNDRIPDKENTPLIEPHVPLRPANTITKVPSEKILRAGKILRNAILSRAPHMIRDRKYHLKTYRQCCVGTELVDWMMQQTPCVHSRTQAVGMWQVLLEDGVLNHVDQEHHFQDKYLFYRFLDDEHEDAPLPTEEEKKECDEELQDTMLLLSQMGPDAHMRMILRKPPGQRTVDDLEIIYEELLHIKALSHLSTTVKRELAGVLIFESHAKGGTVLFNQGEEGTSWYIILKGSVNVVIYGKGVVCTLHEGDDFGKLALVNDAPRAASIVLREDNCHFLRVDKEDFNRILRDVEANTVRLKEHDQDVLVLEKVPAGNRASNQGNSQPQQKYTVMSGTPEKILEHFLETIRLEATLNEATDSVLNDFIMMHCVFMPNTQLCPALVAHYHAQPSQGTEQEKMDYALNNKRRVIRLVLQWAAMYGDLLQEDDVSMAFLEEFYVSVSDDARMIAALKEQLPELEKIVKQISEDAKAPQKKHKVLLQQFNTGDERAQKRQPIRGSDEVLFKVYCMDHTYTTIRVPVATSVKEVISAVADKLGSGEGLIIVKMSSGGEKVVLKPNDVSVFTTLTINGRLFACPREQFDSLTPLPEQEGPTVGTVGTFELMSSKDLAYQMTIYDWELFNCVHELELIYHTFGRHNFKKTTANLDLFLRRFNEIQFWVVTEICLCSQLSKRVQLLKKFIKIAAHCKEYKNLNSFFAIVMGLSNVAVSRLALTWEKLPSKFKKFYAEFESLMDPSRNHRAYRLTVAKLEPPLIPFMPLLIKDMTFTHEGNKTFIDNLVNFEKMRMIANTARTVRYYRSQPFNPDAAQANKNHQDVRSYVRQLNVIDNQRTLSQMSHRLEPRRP
On to `CC[C@H](C)[C@H](NC(=O)[C@H](CCCN=C(N)N)NC(=O)[C@H](CCCN=C(N)N)NC(=O)[C@H](CC(C)C)NC(=O)[C@H](Cc1ccccc1)NC(=O)CNC(=O)CNC(=O)[C@@H](N)Cc1ccc(O)cc1)C(=O)N[C@@H](CCCN=C(N)N)C(=O)N1CCC[C@H]1C(=O)N[C@@H](CCCCN)C(=O)N[C@@H](CC(C)C)C(=O)N[C@@H](CCCCN)C(=O)O`, for which the activation was inactive: -12.6%.

Take `C[N+]1(CCF)[C@@H]2CC[C@H]1CC(OC(=O)C(O)(c1ccccc1)c1ccccc1)C2` (stereo partly specified): the activation was inactive: 6.52%.

Consider `NC1(c2ccccc2)CCCCC1`, for which the activation was inactive: 9.13%.

Regarding `C[N+]1(C)CCOC(O)(c2ccc(-c3ccc(C4(O)C[N+](C)(C)CCO4)cc3)cc2)C1` (stereo unspecified), the activation was inactive: -0.781% and inactive: 0.792%.

For the compound `O=C1CC[C@@]2(O)C3Cc4ccc(O)c5c4C2(CCN3CC2CC2)[C@H]1O5` (stereo partly specified), the activation is inactive: -12.4%.

For the compound `O=C(O)CNCP(=O)(O)O`, the activation was inactive: -1.55%.

Consider `c1csc(CN2CCCC3(CCNCC3)C2)n1`, for which the activation was inactive: -10.1%.

For `CCN1C[C@]2(COC)CC[C@H](OC)[C@@]34C5C[C@@H]6[C@@H](OC)C[C@@]7(OCO[C@@]7([C@@H](O)C23)[C@@H]14)C5[C@H]6OC` (stereo partly specified), the activation was inactive: -3.22%.

For the compound `CN(C)Cc1c[nH]c2ccccc12`, the activation was inactive: -3.14% and inactive: -13.8%.

In the case of `c1cncc(C2CCCCN2)c1` (stereo unspecified), the activation is inactive: 7.66% and inactive: -18.9%.

Turning to `COc1cccc(C(=O)CCN[C@@H](C)[C@H](O)c2ccccc2)c1`, the activation is inactive: -4.52%.

As for `C#CCOC(C(=O)OCCN(C)C)(c1ccccc1)c1ccccc1`, the activation is inactive: -20%.

Regarding `CCC1(c2ccccc2)C(=O)NC(=O)N(C(=O)c2ccccc2)C1=O` (stereo unspecified), the activation was inactive: 1.65%.

On to `CCS(=O)(=O)Nc1cccc(C(=C2CCCCC2)c2cnc[nH]2)c1`, for which the activation was inactive: -23.4%.

With `CCCCOC(=O)c1ccccc1C(=O)OCc1ccccc1`, the activation was inactive: -26.7%.

As for `NCC(O)c1cc(O)c(O)cc1F` (stereo unspecified), the activation is inactive: -25.9%.

For the compound `CC[C@@H](C(N)=O)N1CCCC1=O`, the activation is inactive: -26.7%.

Regarding `O=C(O)CCCc1ccc(N(CCCl)CCCl)cc1`, the activation is inactive: -14% and inactive: -25.7%.

For the compound `O=C(Nc1cccc(F)c1)N1CCC2(CC1)CCN(C(=O)Oc1ccccc1)CC2`, the activation was inactive: -16.2%.

Turning to `O=C(c1cnccn1)N1CCC2(CC1)CN(Cc1ccncc1)C2`, the activation was inactive: -6.17%.

With `c1ccc2c(c1)OC[C@@H](C1=NCCN1)O2`, the activation is inactive: -12.3%.

Consider `OCC1OC(n2cnc3cc(Cl)c(Cl)cc32)C(O)C1O` (stereo unspecified), for which the activation is inactive: -4.14%.

As for `N#Cc1ccc(CN2CC3(CCNCC3)C2)cc1`, the activation is inactive: 2.52%.

Take `NCC(CS(=O)(=O)O)c1ccc(Cl)cc1` (stereo unspecified): the activation was inactive: -16.3%.

Consider `CN1C(=O)CCS(=O)(=O)[C@H]1c1ccc(Cl)cc1`, for which the activation is inactive: -29.8%.

As to `C=CCN1CCc2cccc3c2C1Cc1ccc(O)c(O)c1-3` (stereo unspecified), the activation was inactive: -15.3%.

`CC[C@@H](CO)NC(=O)[C@H]1C=C2c3cccc4[nH]cc(c34)C[C@H]2N(C)C1`: the activation was inactive: -7.17%.

For the compound `COc1ccc(OC)c(CC(C)N)c1` (stereo unspecified), the activation is inactive: -18.3%.

In the case of `CC(C(=O)OC1CC2CCC(C1)N2C)c1ccc(Br)cc1` (stereo unspecified), the activation is inactive: 13.4%.

As to `O=C1CCCC2C3CC(CN12)C1CCCCN1C3` (stereo unspecified), the activation is inactive: -7.65%.

Turning to `N[C@H](C(=O)O)c1cc(=O)[nH]o1`, the activation was inactive: -2.75%.

For the compound `CCCCCl`, the activation is inactive: -5.57%.

For `COC(=O)[C@]1(C)CC[C@@]2(C)CC[C@@]3(C)C4=CCc5c(cc(O)c(O)c5C)[C@]4(C)CC[C@@]3(C)C2C1` (stereo partly specified), the activation is inactive: -18.2%.

As to `CN1C(=S)CN=C(c2ccccc2)c2cc(Cl)ccc21`, the activation was inactive: -15%.

In the case of `NC(=O)[C@@H]1CCCN1C(=O)[C@H](Cc1ccccc1)NC(=O)[C@@H]1CCCN1C(=O)[C@@H](N)Cc1ccc(O)cc1` (H-YPFP-NH2), the activation is inactive: -4.2%.

For the compound `COc1ccc(C(=O)N2CCCC2=O)cc1`, the activation was inactive: -4.66% [middle of 4 runs].

With `CC(N)[C@H](O)c1ccccc1` (stereo partly specified), the activation was inactive: -19.1%.

As for `C=CCN1CCc2cccc3c2[C@H]1Cc1ccc(O)c(O)c1-3`, the activation was inactive: -25.2%.

In the case of `Cc1[nH]c2ccc(O)cc2c1CCN`, the activation is inactive: -12.9% and inactive: 8.11% and inactive: 5.84%.

Consider `COc1nc(NC(C)C)nc(NC(C)C)n1`, for which the activation is inactive: 2.3%.

Turning to `O=C(c1ccncc1)N1CCC[C@@]2(CCN(Cc3nccs3)C2)C1`, the activation was inactive: -16.1%.

Take `CCCN(CCC)C1CCc2cccc(O)c2C1` (stereo unspecified): the activation is inactive: 9.07% and inactive: -0.579%.

For the compound `O=C(Nc1ccccc1)N1CC2(CCN(C(=O)Oc3ccccc3)CC2)C1`, the activation is inactive: -17.2%.

As for `c1cc(CN2CC3(CCNCC3)C2)ccn1`, the activation was inactive: -20.8%.

Regarding `O=c1oc2ccccc2c(O)c1Cc1c(O)c2ccccc2oc1=O`, the activation is inactive: -1.4% and inactive: -2.53%.

Turning to `OCCN(CCO)CCO`, the activation is inactive: -9.71%.

Turning to `C[C@]12CC[C@H](O)CC1=CCC1C2CC[C@]2(C)C(=O)CC[C@@H]12` (stereo partly specified), the activation is inactive: -11.3%.

As for `c1cncc(C2=NCCC2)c1`, the activation was inactive: -2.71%.

Take `Cc1ccc(C[N+](C)(C)C)o1`: the activation is inactive: -5.41% and inactive: -0.486% and inactive: 3.14%.

Take `CC1(C)C(O)CC(O)[C@]2(C)C1CC(O)[C@]1(C)C2CC[C@@]2(C)C(c3ccoc3)OC(=O)C3O[C@]312` (stereo partly specified): the activation was inactive: -8.15%.

As for `CC(C)(Cc1c[nH]c2ccc(Cl)cc12)NCCOc1ccccc1OCC1CC1`, the activation was inactive: -23.8% and inactive: -11.4%.

In the case of `CCCCC/C=C\C=C\[C@H](CCCCCCCC(=O)O)OO`, the activation is inactive: 3.34%.

Consider `C[C@]12C=CC(=O)C=C1CC[C@@H]1[C@@H]2CC[C@]2(C)OC(=O)CC[C@@H]12`, for which the activation was inactive: -9.73%.

With `CCCCCCCCc1ccc(O)cc1`, the activation was inactive: -63.2%.

For the compound `C[C@]12CC[C@@H]3c4ccc(OC(=O)N(CCCl)CCCl)cc4CC[C@H]3[C@@H]1CC[C@@H]2O`, the activation is inactive: -23.5%.

Take `CCCN1CCc2cccc3c2[C@H]1Cc1ccc(O)c(O)c1-3`: the activation was inactive: -21.7%.
